In PubChem BioAssay AID686971 (National Center for Advancing Translational Sciences (NCATS), 2013):
Out of some 360,000 compounds screened, about 7,500 (2.1%) were called active. The shares of active, inactive and inconclusive entries below differ from those in the screen. Calls follow the shape of the dose curve; as a rule, active = well fitted cell-killing curve with a large enough effect; inconclusive = small, poorly fitted or top-dose-only effect, or effect the other way, or another doubt; inactive = no such curve, though single readings can be large or run the other way. Potencies of inconclusive entries are left out as doubtful fits.

Test: qHTS for induction of synthetic lethality in tumor cells producing 2HG: qHTS for the HT-1080-IDH1KD cell line;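 as to activity, negative = toxicity: 0% = DMSO wells and -100% = cell-free medium wells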
Conditions: HT-1080 IDH1 knockdown viability, ATP luminescence, 48 h; activity, negative = toxicity: at 46.1 µM (top of the series) unless noted
Outline: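 In this qHTS, HT-1080 cells depleted of IDH1 are exposed for 48 h at 37 °C to compound titrations. Toxicity is scored from CellTiter-Glo luminescence, with DMSO as full viability and medium alone as none.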
Potency is read from the fitted curve at half-maximal effect; tags tell the direction and shape of the fitted curve.

SMILES | Potency | activity, negative = toxicity
CC(C)(C)c1ccc(NC(=O)c2ccsc2)cc1 | inconclusive [cytotoxic, single point] | 
COc1ccccc1C(=O)Nc1ccnn1C1CCN(C/C=C/c2ccc(F)cc2)CC1 | inconclusive [cytotoxic, single point] | 
Cc1ccc(-c2nc3cc(C)c(Br)c(C)n3c2CC(C)(C)C)cc1 | inactive | 
O=C(NCc1ccco1)c1ccc(-c2ccc3nccn3c2)cc1 | inconclusive [rising, single point] | 
O=C1C=CC(=O)N1c1cccc(-c2ccccc2)c1 | inconclusive [cytotoxic, single point] | 
CCCc1nc2ccccc2c(C(=O)OCC(=O)Nc2cccc(S(=O)(=O)N3CCOCC3)c2)c1CC | inconclusive [cytotoxic, partial curve] | 
Cc1ccc(C(=O)N2CCN3C(=O)c4ccccc4C23c2ccc(Cl)cc2)cc1 (stereo not drawn) | inconclusive [cytotoxic, single point] | 
O=C(/C=C/c1ccco1)NC(=S)Nc1nc(-c2ccc3ccccc3c2)cs1 | inconclusive [cytotoxic, single point] | 
O=c1[nH]c2ccccc2c2oc(CCl)nc12 | active: 14.6 µM | 
COc1cc(/C=C/C(=O)OCC(=O)N2CCC(Cc3ccccc3)CC2)ccc1O | inconclusive [cytotoxic, partial curve] | 
O=C(CN(Cc1ccccc1F)C(=O)Cn1nnc(-c2cccs2)n1)NCC1CCCO1 (stereo not drawn) | inactive | 
CC(C)n1nnnc1C1c2ccccc2C(=O)N1Cc1cccnc1 (stereo not drawn) | inconclusive [rising, single point] | 
CNC(=O)C1C2C=CC3(O2)C1C(=O)N(C1CC1)C3C(=O)NCc1ccc(OC)cc1 (stereo not drawn) | inactive | 
CCCCOc1cc(C)nc(NCc2ccccc2)n1 | inconclusive [cytotoxic, single point] | 
Cc1ccc2c(C(=O)N3CCN(c4ccccc4)CC3)cc(-c3cccnc3)nc2c1C | active: 23.1 µM | 
CC1=NN(C(=O)Cc2ccc([N+](=O)[O-])cc2)C(O)(c2cccnc2)C1 (stereo not drawn) |  | inconclusive: -48.2%
CC(O)(c1ccccc1)c1nc(-c2ccc(Cl)cc2)cs1 (stereo not drawn) | inconclusive [cytotoxic, single point] | 
Cc1ccc(S(=O)(=O)C(NC(=O)c2ccccc2)=C(Cl)Cl)cc1 | inconclusive [cytotoxic, single point] | 
CCSC1=C(C#N)C(c2ccc(Cl)cc2)C2=C(CCCC2=O)N1 (stereo not drawn) | inconclusive [cytotoxic, partial curve, poor fit] | 
Cc1ccc(/C=N/NC(=O)c2csc3c2CCCC3)cc1 | inconclusive [cytotoxic, full curve] | 
Cc1cc(S(=O)(=O)Nc2ccc(C(=O)NCC(C)(C)N3CCOCC3)cc2)ccc1F | inactive | 
Cc1ccc(NC(=S)N(CCCN(C)C)Cc2cc3cc4c(cc3[nH]c2=O)OCO4)cc1 | inactive | 
Cc1ccc(-c2c3c(=O)n(C)c(=O)n(C)c3cn2N2CCOCC2)cc1 | inactive | 
O=C(c1nn(Cc2ccccc2)c(=O)c2ccccc12)N1CCN(C/C=C/c2ccccc2)CC1 | inconclusive [cytotoxic, single point] | 
CCCC1=Nc2cc(C(=O)NCCCOCC)ccc2Sc2ccccc21 | active: 0.731 µM | 

SMILES | Potency | activity, negative = toxicity
COc1ccccc1CNS(=O)(=O)c1ccc(-c2cc(C)no2)cc1 | active: 2.06 µM | 
Cc1ccc(-n2cnc3c(=O)[nH]cnc32)cc1 | inactive | 
CC(C)(C)C(=O)N1N=C(c2ccc(NS(C)(=O)=O)cc2)CC1c1cccs1 (stereo not drawn) | active: 16.4 µM | 
Cc1c(OCc2ccccc2)c(=O)ccn1Cc1ccccc1 | inactive | 
CN(C)CCCNS(=O)(=O)c1ccc(N2CCN(Cc3ccc4c(c3)OCO4)CC2)c([N+](=O)[O-])c1 | inconclusive [cytotoxic, partial curve] | 
CCN1CCCC1CNC(=O)c1ccc2c(c1)NC(=O)/C(=C\c1ccc(OC)c(OC)c1)S2 (stereo not drawn) | inconclusive [cytotoxic, partial curve] | 
CCc1nnc(N/N=C/c2cc(C)c(C)cc2C)n1N | inconclusive [cytotoxic, single point] | 
Cc1ccc(O)c(-c2cc(C(=O)Nc3ccc(S(=O)(=O)Nc4nccc(C)n4)cc3)[nH]n2)c1 | inconclusive [cytotoxic, full curve, poor fit] | 
CN(C)C(CNC(=O)C1CCN(C(=O)/C=C/c2ccccc2)CC1)c1ccccc1 (stereo not drawn) | inactive | 
CC(=O)c1ccc(NC(=S)N2CCN(c3ccccn3)CC2)cc1 | inactive | 
O=C1C=C(NCCc2cc(Br)c(O)c(Br)c2)C(=O)c2ncccc21 | active: 10.3 µM | 
Cc1noc(C)c1CSc1nc2ccccc2c(=O)n1-c1ccc(F)cc1F | active: 16.4 µM | 
CC(C)CC1C(=O)N(Cc2cn(Cc3ccco3)nn2)CCS(=O)(=O)N1Cc1ccc(-c2ccc(Cl)c(Cl)c2)cc1 (stereo not drawn) | active: 18.4 µM | 
CCOC(=O)c1c(NC(=O)c2ccccc2N(C)S(=O)(=O)c2ccccc2)sc2c1CCCC2 | active: 9.2 µM | 
COc1ccc(-n2nnnc2SCC(=O)Nc2nnc(C)s2)cc1 | inactive | 
CCOc1ccc(C(C(=O)NCC2CCCO2)N(C(=O)c2snc(C(N)=O)c2N)c2cccc(F)c2)cc1 (stereo not drawn) | inactive | 
Cc1ccccc1/C(N)=N/OC(=O)c1ccc(F)cc1 | inconclusive [cytotoxic, single point] | 
O=C(NC12CC3CC(CC(C3)C1)C2)c1ccccc1O |  | inconclusive: -37.7% [cytotoxic]
FC(F)Sc1ccc(-n2c(-c3ccc(Cl)cc3)c[n+]3c2CCC3)cc1 | inconclusive [cytotoxic, partial curve] | 
CC(NC(=O)/C(C#N)=C/c1ccc([N+](=O)[O-])o1)c1ccccc1 (stereo not drawn) | active: 6.51 µM | 
Cc1cc(=O)n2[nH]c(-c3ccc(C(C)(C)C)cc3)cc2n1 | inconclusive [cytotoxic, single point] | 
COc1ccc(C2Nc3ccccc3C(=O)N2c2ccccc2)cc1COc1ccccn1 (stereo not drawn) | inactive | 
Cc1[nH]c2ccccc2c1/C=N/Nc1ccccc1[N+](=O)[O-] | inconclusive [cytotoxic, partial curve] | 
O=C1NCCN(Cc2cccc(Oc3ccccc3)c2)C1CC(=O)N1CCCCO1 (stereo not drawn) | inactive | 
O=[N+]([O-])C(/C=C(/Cl)[N+](=O)[O-])=C(N1CCCCC1)N1CCCCC1 | inconclusive [cytotoxic, partial curve] | 

SMILES | Potency | activity, negative = toxicity
c1ccc(-c2nnc(-c3ccccn3)nc2NC2CCCCC2)cc1 | inconclusive [cytotoxic, full curve] | 
COc1ccc(OS(=O)(=O)c2c(C)noc2C)cc1 | inactive | 
COc1ccc2ccccc2c1CNCc1ccc(C)cc1 | inconclusive [cytotoxic, single point] | 
CCc1ccc(-c2cc(C)no2)cc1S(=O)(=O)N1CCN(c2cccc(C)c2C)CC1 | inactive | 
C=C1C(=O)O[C@H]2C1CC[C@@](C)(O)C13C=CC(C)(C21)C1(C3)C(=O)O[C@@H]2C3C(C)=CCC3[C@](C)(O)C[C@H](OC(C)=O)C21 (stereo partly drawn) | inconclusive [cytotoxic, single point] | 
CCC(c1nnnn1C1CCCC1)N(Cc1cccs1)Cc1cc2cccc(C)c2[nH]c1=O (stereo not drawn) | inconclusive [cytotoxic, single point] | 
COc1cc(N=c2c([N+](=O)[O-])nn(-c3ccc4c(c3)OCCO4)n2O)cc(OC)c1 | inconclusive [cytotoxic, single point] | 
Cc1cc(Cl)n2ncc(-c3ccccc3)c2n1 | inconclusive [cytotoxic, single point] | 
O=C(C1CCN(C2CCN(CC3CC=CCC3)CC2)CC1)N1CCOCC1 (stereo not drawn) | inactive | 
COC(=O)c1ccc(C(=O)N(C)C2CCCN(Cc3ccccc3F)C2)nc1 (stereo not drawn) | inactive | 
CC(O)[C@H]1CNC(=O)C(=O)N1CC1(c2ccccc2)CC1 (stereo partly drawn) | inactive | 
S=c1[nH]nc(COc2ccc(Cl)cc2)n1-c1ccc(Cl)cc1 |  | inconclusive: -9.01% [cytotoxic]
COc1ccccc1NC(=O)C1=C(C)NC(=O)NC1c1cccs1 (stereo not drawn) | inactive | 
CCN(CC)S(=O)(=O)c1cccc(-c2nnc(SCCOc3ccccc3C)o2)c1 | inactive | 
Cc1nnc(NC(=O)COc2ccccc2)s1 | inconclusive [rising, single point] | 
COc1cc(/C=C2\CC(C(C)(C)C)C/C(=C\c3cc(OC)c(OC)c(OC)c3)C2=O)cc(OC)c1OC (stereo not drawn) | active: 5.8 µM | 
COc1ccc(/C=N\NC(=O)COc2ccccc2Cl)cc1Cn1nc(C)cc1C | inconclusive [cytotoxic, single point] | 
O=C1NC[C@@H](CCCCN2C[C@H](Cc3ccc(O)cc3)N(CC3CCCCC3)C(=O)C2=O)N(Cc2ccccc2)C1=O | inconclusive [cytotoxic, single point] | 
Cc1ccc(C)c(N2CCN(S(=O)(=O)c3c(C(=O)N4CCCCC4)c(C)n(C)c3C)CC2)c1 | inactive | 
CC(=S)/C=C1\Sc2ccccc2N1C | inconclusive [cytotoxic, single point] | 
COc1cccc(N2CCN(c3ncnc4c3[nH]c3ccc(F)cc34)CC2C)c1 (stereo not drawn) | active: 7.31 µM | 
CC(C)c1ccc(S(=O)(=O)N2CCN(C(C)C(=O)N3CCCC3)CC2)cc1 (stereo not drawn) | inactive | 
O=C(Nc1nc(-c2cc(Cl)sc2Cl)cs1)c1cccs1 | active: 11.6 µM | 
